In a compilation of properties of binary mixtures (doi:10.1016/j.molliq.2017.08.014):
The densities may have been worked out from excess volumes.

Experiment: xn = mol fraction of the nth substance listed
Conditions: 101 kPa

CCCCn1cc[n+](C)c1.[Cl][Fe-]([Cl])([Cl])[Cl] + CCOC(C)=O
mass density [kg/m3]
Conditions | x1 = 0.1002 | x1 = 0.1999 | x1 = 0.3007 | x1 = 0.3999 | x1 = 0.5 | x1 = 0.6001 | x1 = 0.7 | x1 = 0.7973 | x1 = 0.9 | x1 = 1
293.15 K | 1015.7 | 1095.8 | 1160.7 | 1210.2 | 1249.1 | – | 1309 | 1331.3 | 1350.6 | 1369.1
298.15 K | 1010.2 | 1090.7 | 1155.9 | 1205.6 | 1244.7 | 1277.2 | 1304.8 | – | – | 1365
303.15 K | 1004.7 | 1085.7 | 1151.1 | 1201 | 1240.2 | – | 1300.5 | – | 1342.3 | 1360.9
308.15 K | 999.2 | – | 1146.3 | – | 1235.8 | – | 1296.3 | – | 1338.2 | –
313.15 K | 993.8 | – | 1141.5 | 1191.9 | 1231.4 | 1264.2 | 1292.1 | – | 1334.1 | 1352.8
318.15 K | 988.4 | 1070.3 | – | – | 1227 | 1260 | 1287.9 | 1310.5 | – | 1348.8
323.15 K | 983.6 | 1065 | 1132 | 1182.8 | 1222.6 | 1255.7 | 1283.7 | 1306.4 | 1326 | 1344.8

CCOC(C)=O + CCCCn1cc[n+](C)c1.Cl[Fe-](Cl)(Cl)Cl
x2 = 0
Conditions | mass density [kg/m3]
293.15 K | 900.6
298.15 K | 894.5
303.15 K | 888.4
308.15 K | 882.2
313.15 K | 876
318.15 K | 869.7
323.15 K | 863.4
